Measurements published in article PMC4336329 (PLoS ONE, 2015).
In all, about 310,000 compounds went through this assay and about 2,200 (0.71%) showed an effect of 50% or more. The effect is printed as a negative number. The list shows a part of the results.

These compounds were tested against human ether-à-go-go-related gene (hERG) potassium channel (human, UniProt Q12809) (assay: primary screen, population patch clamp on CHO cells stably expressing hERG).
Chain of human ether-à-go-go-related gene (hERG) potassium channel (Q12809 whole entry, looked up): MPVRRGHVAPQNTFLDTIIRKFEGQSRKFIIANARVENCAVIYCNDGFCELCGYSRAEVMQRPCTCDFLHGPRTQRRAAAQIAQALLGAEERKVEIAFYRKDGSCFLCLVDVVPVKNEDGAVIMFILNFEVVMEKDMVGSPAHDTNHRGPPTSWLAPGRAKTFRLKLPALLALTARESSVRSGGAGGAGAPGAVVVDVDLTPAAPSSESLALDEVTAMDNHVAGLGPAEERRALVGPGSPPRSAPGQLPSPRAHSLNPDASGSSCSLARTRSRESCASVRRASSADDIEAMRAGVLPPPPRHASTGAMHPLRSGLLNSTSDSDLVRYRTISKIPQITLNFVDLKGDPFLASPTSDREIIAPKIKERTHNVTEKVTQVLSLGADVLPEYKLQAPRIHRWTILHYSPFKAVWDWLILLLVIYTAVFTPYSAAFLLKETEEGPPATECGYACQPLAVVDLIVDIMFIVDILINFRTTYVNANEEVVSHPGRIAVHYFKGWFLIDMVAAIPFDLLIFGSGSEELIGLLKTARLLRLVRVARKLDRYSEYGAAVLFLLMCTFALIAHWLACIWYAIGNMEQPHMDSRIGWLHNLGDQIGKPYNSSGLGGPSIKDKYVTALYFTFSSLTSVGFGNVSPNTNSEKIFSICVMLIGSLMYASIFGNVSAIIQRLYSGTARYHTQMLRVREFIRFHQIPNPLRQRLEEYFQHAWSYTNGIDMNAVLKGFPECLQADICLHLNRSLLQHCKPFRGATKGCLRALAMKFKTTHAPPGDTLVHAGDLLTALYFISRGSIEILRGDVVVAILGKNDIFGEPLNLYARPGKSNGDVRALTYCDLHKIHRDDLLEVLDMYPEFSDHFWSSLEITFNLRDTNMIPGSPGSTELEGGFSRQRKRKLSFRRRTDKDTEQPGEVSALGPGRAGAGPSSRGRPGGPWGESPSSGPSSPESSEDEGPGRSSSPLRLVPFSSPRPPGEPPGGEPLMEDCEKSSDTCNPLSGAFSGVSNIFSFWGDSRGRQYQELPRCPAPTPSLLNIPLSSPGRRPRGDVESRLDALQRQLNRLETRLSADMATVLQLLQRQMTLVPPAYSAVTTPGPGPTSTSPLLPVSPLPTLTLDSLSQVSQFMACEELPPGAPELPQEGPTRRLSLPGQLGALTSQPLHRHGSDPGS

Structure (SMILES)	hERG current change (%, negative = inhibition) at 1uM [%]
O=S(=O)(/N=C(\[O-])C[n+]1ccccc1)c1ccc(Cl)cc1	5.02
COCCNC(=O)C12CC3CC(CC(Cl)(C3)C1)C2	15
NS(=O)(=O)c1ccc(N=Nc2c[nH]c(=O)c(O)c2)cc1	8.36
CCOc1ccc(N(CC(=O)NC2CCC(C)CC2)S(=O)(=O)c2c(C)noc2C)cc1 (centres unmarked)	12.8
Cc1noc(NC(=O)c2ccc(Cl)cc2)c1Cl	12.3
C=CCN1C(=O)C(O)(CC(=O)c2ccc(N)cc2)c2ccccc21 (centres unmarked)	4.38
Clc1cccc(C[n+]2cc(-c3ccccc3)n3c2CCC3)c1.[Br-]	-6.51
O=C(CC1S/C(=N/N=C/c2c[nH]c3ccc(OCc4ccccc4)cc23)NC1=O)Nc1ccccc1 (centres unmarked)	19.5
O=C(O)c1ccc(NC(=O)c2cc3ccccc3o2)cc1	13.7
O=S(=O)(c1ccc(-c2n[nH]c(=S)o2)cc1)N1CCCC1	32.4
COc1cc(NC(=O)c2ccccc2Cl)ccc1NC(=O)c1ccco1	-0.127
CNC(=O)C(=O)NCC1OCCCN1S(=O)(=O)c1ccc2c(c1)OCCO2 (centres unmarked)	-0.612
Cc1ccnc2nc(C(=O)OCC(=O)NCCc3ccccc3)nn12	10.8
O=C(CN1CCCC1)Nc1nnc(-c2cccs2)s1	2.52
Cc1ccc(C(=O)c2c3ccc(N)cc3nn2CCC(N)=O)cc1	15.9
COc1ccc(C(CC(=O)N2CCOCC2)c2c(OC)cc(OC)c3ccc(=O)oc23)cc1 (centres unmarked)	4.89
CC(=O)N1CCN(S(=O)(=O)c2cccc(C(=O)Nc3cc(C(F)(F)F)ccc3N3CCOCC3)c2)CC1	-0.673
CN=C(C)C1=C(O)C(C(=O)OC)C(C)(C)CC1=O (centres unmarked)	0.737
Cc1ccc(Cn2c(C3CCCN3c3nc(-c4ccc(F)cc4)cs3)nc3cc(C(=O)NCCCO)ccc32)cc1 (centres unmarked)	16.4
Cc1cccc(/N=C/c2nc(-c3ccccc3Br)oc2O)n1	15.8
O=C(Nc1nc(-c2ccc(Oc3ccccc3)cc2)cs1)C1=COCCO1	0.903
CCN(CC)c1cc(Cl)nc(N)n1	13

Structure (SMILES)	hERG current change (%, negative = inhibition) at 1uM [%]
COC(=O)CSc1ncc(C#N)c(N)n1	0.696
CCOC(=O)N1CCN(C(=O)CS(=O)(=O)c2cn(Cc3cccc(F)c3)c3ccccc23)CC1	12.1
CCC1(CC)Nc2ccccc2C(=O)N1c1ccc(NC(C)=O)cc1	5.78
CCN(CC)S(=O)(=O)c1ccc(NC(=O)COc2c(OC)cccc2OC)cc1	12.3
O=C(NCc1ccccn1)C(=O)NCC1OCCN1S(=O)(=O)c1ccc([N+](=O)[O-])cc1 (centres unmarked)	2.09
Cc1nc2c(=O)[nH]c(=S)n(C)c2nc1C	11.8
CCN(CC)c1ccc(C(=O)N/N=C(\C)c2ccc(OC)c(OC)c2)cc1	1.83
C/C(CC(=O)Nc1ccc(N(C)C)cc1)=N\NC(=O)c1ccc(F)cc1	12.9
CCN(CC)CCNc1c2c(c(C#N)c3nc4ccccc4n13)CCCC2	-3.74
COc1ccc(-c2[nH]ncc2CN(C)Cc2cc(C)[nH]n2)c(F)c1	14.8
COc1ccc(/C=C/C(=O)Oc2cccc(/C=N/NC(=O)c3cccc(F)c3)c2)cc1	-18.8
CCOC(=O)C1(C)/C(=N/Nc2ccccc2Cl)C(=O)C(=O)N1c1ccccc1 (centres unmarked)	17.1
COc1ccccc1C(=O)N1c2ccccc2Sc2ccccc21	3.13
COc1ccc(Br)cc1CN1CCN(C(=O)c2cccc(F)c2)CC1.O=C(O)C(=O)O	-1.74
CC(=O)Nc1nonc1NC(C)=O	6.04
COc1ccc(-n2c(O)c(C=Nc3ccccc3)c3ccccc3c2=O)cc1OC	-0.129
CCN(CC)S(=O)(=O)c1ccc(/C=C/C(=O)OCC(=O)Nc2ccc(C(N)=O)cc2)cc1	14.9
COc1ccc(Cc2nn3c(Cn4nnc5ccccc54)nnc3s2)cc1	8.06
Cc1cc(C(=O)COC(=O)CN=C2NS(=O)(=O)c3ccccc32)c(C)n1CCc1ccc(Cl)cc1	15.8
O=C(Nc1c2c(nn1-c1ccccc1)CS(=O)(=O)C2)c1ccccc1Br	1.13
Cc1cccc(C(=O)Nc2cccc(C(=O)N/N=C/c3ccncc3)c2)c1	-2.35
CC(=O)NC(NC(C)=O)c1ccc(Br)cc1	-1.9
